# According to publication PMC10668032:
# The list shows a part of the results. At the low end of the ranking the order means little.
# Biological target: SIX1-Q177R homeodomain (UniProt Q15475)
# Assay: universal protein binding microarray
# Conditions: Universal all-10-mer PBM (8x60K, AMADID 030236), 300 nM GST-tagged protein, Alexa Fluor 488 anti-GST; buffer, salt, pH and temperature not stated; high values mean tight binding; most listed sequences are background and not binding sites; double strand, one strand shown
row,Sequence,binding signal [E-score]
1,GAGTGCCC,-0.024
2,CGTGAACC,0.17
3,ACGTACAC,0.436
4,AATTTTAA,-0.191
5,CCGCTTCC,-0.189
6,ATGCAAGG,-0.252
7,TAACGTTA,-0.191
8,CATAGGCG,-0.0895
9,TCCATGAA,-0.0712
10,AGTGGCAC,0.0681
11,ACAACCAG,0.0624
12,TAGCTTAA,-0.25
13,GCTGTACC,0.00878
14,AGACACAC,0.316
15,ATCGCAAT,-0.195
16,AATGTAGA,-0.21
17,AGCACAGA,0.00244
18,GTGCGAAA,-0.013
19,TAAAATGA,-0.151
20,ACCGCCCT,0.113
21,AGCCTGAT,-0.129
22,ATAGCTAT,-0.293
23,CAAGGAGG,0.0012
24,GCGAAGCA,-0.19
25,ACTCGATC,0.0238

row,Sequence,binding signal [E-score]
1,AGAACATA,-0.0962
2,AACCGAGG,-0.147
3,AACCAAAT,-0.0361
4,CACGTAGG,0.0637
5,ACCCGGTC,0.0193
6,CGATAATA,0.0968
7,CATGCGGC,-0.145
8,ACTGGATA,0.103
9,ATGCCCAC,-0.195
10,GTCTCATA,0.179
11,GACGCATC,-0.115
12,CAAGTGGG,0.103
13,CCCATTAG,-0.145
14,GTCCAAAA,-0.0889
15,CAATTATC,-0.145
16,CAGGCCCG,-0.0999
17,AAGTTAAA,-0.0614
18,CACTAGAC,0.163
19,CTCAGTTC,-0.243
20,GAGTCGGA,-0.0488
21,ACTATATG,-0.247
22,CGCGTTTA,-0.0709
23,ATTACTCC,0.287
24,AGTGGGAC,0.153
25,ATGCCAGC,-0.102

row,Sequence,binding signal [E-score]
1,CAGCGCTC,-0.389
2,GTATTCAC,0.0614
3,CATGATAA,-0.244
4,AACGGTGT,0.467
5,CTGGCCTA,-0.192
6,AGCCTTTC,-0.341
7,CTTAGAGA,-0.127
8,CAGGCAGC,-0.0424
9,AACTTGAA,-0.0716
10,CCCAGGAG,-0.00178
11,ACATTGGA,0.0449
12,ACTTTTGG,0.00594
13,ACCATATG,0.0129
14,GTTATGCA,0.0373
15,ACCAAAGT,-0.00033
16,CGGTTGTC,-0.0171
17,ATACATAA,-0.118
18,CTCATGGA,-0.0207
19,GCCCTGAC,0.114
20,GGAGCTTA,0.0998
21,ACTGCTGA,-0.00435
22,ATTCCAAT,-0.135
23,ACGAGGCC,-0.201
24,CAAGATGC,0.0677
25,ACAAGGTG,0.264

row,Sequence,binding signal [E-score]
1,AAGACACT,0.374
2,GGTGAGCA,-0.0354
3,AAGTGTGC,0.125
4,ACTGTGTG,0.177
5,CAAGAACC,-0.142
6,CCAGAGGA,0.0751
7,AGTACCTA,0.114
8,CGGATCCG,0.183
9,GGATTGCC,-0.304
10,GTACTGTA,-0.0449
11,AAATCCGC,-0.00134
12,CACCTCTC,0.121
13,ACTCTCGG,0.111
14,TCAACGCA,-0.215
15,TAAGTGGA,-0.0829
16,GATAAGGA,-0.0321
17,CCGCTAAC,-0.0946
18,AAAGTGTT,0.285
19,GCCTGACC,0.0079
20,AGTAAAGC,-0.318
21,GCTCGGGA,-0.0653
22,CATACGAA,-0.148
23,CAGGGGCC,-0.14
24,ACGCATCA,-0.048
25,CCTTACAC,0.439

row,Sequence,binding signal [E-score]
1,AAACAGAT,-0.26
2,AGAAGGAG,-0.163
3,GGATATCC,0.0614
4,CTAACTCC,0.0567
5,CAGGTGTA,0.464
6,AGAACAAA,-0.309
7,ACCACGGA,0.178
8,GAGCATAA,-0.119
9,ACCGCTAA,-0.149
10,CGAGTCTC,0.0724
11,GTTACTCA,-0.112
12,CCCACGCG,-0.0181
13,ACCCATGG,0.234
14,AAGTTGTA,-0.0367
15,CGATGTAG,-0.13
16,AGAACTGG,-0.233
17,CGGATCAG,0.174
18,CACATCAA,-0.205
19,GTTCTCAA,-0.265
20,AGCTAAGG,-0.215
21,ACTGTCTC,-0.139
22,TACGTCGA,-0.16
23,AGGTCACT,0.0289
24,TACCACTA,0.0694
25,ATAATGGG,0.02

row,Sequence,binding signal [E-score]
1,ATGTTATA,-0.141
2,ATAGAAAT,-0.121
3,ACGTGGGA,0.113
4,AACAGATC,-0.19
5,GAATCCGA,0.111
6,AACTGCCA,-0.253
7,TACTCGAA,-0.122
8,AACTGTTC,-0.132
9,AAGAGACT,-0.275
10,AGGGTTAG,0.0726
11,ATCATTGC,-0.147
12,AGAGTCCA,0.0229
13,ACTACCTA,0.0214
14,TCGGACCA,-0.124
15,GGAAGATA,0.112
16,TACGCCCA,0.12
17,CACTGAGG,0.227
18,CGCTGCAC,0.14
19,ATGGTAGC,-0.157
20,AATGCCTG,-0.2
21,AAACTTAC,-0.0389
22,AGGCGGAC,-0.114
23,CGCTGACA,0.124
24,ACTAGCAC,0.194
25,TATAGGGA,-0.145

row,Sequence,binding signal [E-score]
1,ATCTACTC,0.136
2,AAAAAGAT,-0.268
3,ATAACTGC,-0.113
4,ATTCACAA,0.0444
5,ATCCAGAA,0.0661
6,CATTTTAG,-0.138
7,ATCCATAC,-0.0277
8,ATGAAGCG,-0.154
9,GTCTGGCA,-0.209
10,GCATCATA,-0.0183
11,GCGATGAA,-0.00868
12,ACGAACGT,-0.0992
13,AATACACC,0.46
14,GAATACCA,0.00666
15,ATATTGGA,-0.0673
16,AATGGCCG,-0.104
17,ATTGGTCC,-0.113
18,ATCCCAAG,-0.0145
19,CAGTAGCA,-0.19
20,TCGAAAAA,-0.207
21,TACACGTA,0.355
22,ATACTGCA,0.0155
